Measurements from PubChem BioAssay AID1745853 (National Center for Advancing Translational Sciences (NCATS), 2022).
The list shows a part of the results. Further columns of the screen follow, without active or inactive calls.

What was measured:
Test in all cases: Primary Screen for Target Class Profiling of Small Molecule Inhibitors of Methyltransferases
[1] = target: Glycine N-methyltransferase (Homo sapiens) (UniProt Q14749); details: purified enzyme, MTase-Glo SAH luminescence; measured here: GNMT inhibition; at 40 µM; stronger effect = lower value
In short: (§1)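 Each enzyme was assayed with SAM and its substrate. SAH formation detected by MTase-Glo luminescence; single-point 40 uM screen[…].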

[2] = target: Guanidinoacetate N-methyltransferase (Homo sapiens) (UniProt Q14353); details: purified enzyme, MTase-Glo SAH luminescence; measured here: GAMT inhibition; at 40 µM; stronger effect = lower value
In short: as §1

[3] = target: Histamine N-methyltransferase (Homo sapiens) (UniProt P50135); details: purified enzyme, MTase-Glo SAH luminescence; measured here: HNMT inhibition; at 40 µM; stronger effect = lower value
In short: as §1

[4] = target: Nicotinamide N-methyltransferase (Homo sapiens) (UniProt P40261); details: purified enzyme, MTase-Glo SAH luminescence; measured here: NNMT inhibition; at 40 µM; stronger effect = lower value
In short: as §1

[5] = target: Phenylethanolamine N-methyltransferase (Homo sapiens) (UniProt P11086); details: purified enzyme, MTase-Glo SAH luminescence; measured here: PNMT inhibition; at 40 µM; stronger effect = lower value
In short: as §1
% is scaled to controls: 0 for no effect and ±100 for the full control effect.

| Compound | activity change, negative = inhibition [1] [%] | activity change, negative = inhibition [2] [%] | activity change, negative = inhibition [3] [%] | activity change, negative = inhibition [4] [%] | activity change, negative = inhibition [5] [%] |
| --- | --- | --- | --- | --- | --- |
| CCCCNC(=O)c1ncn2c1C(=O)N(CCC)C(C)(C(=O)NCc1ccc(C)cc1)C2 (stereo not given) | 2.52 | 0 | 4.98 | 6.61 | 4.11 |
| COc1cc(OC)c(NC(=O)N2CCn3cccc3C2C(C)C)cc1Cl (stereo not given) | 15.8 | 0 | 8.26 | 9 | 9.87 |
| CC(C)CNC(=O)c1ccc2c(=O)n(C)c3nn(Cc4ccc(F)cc4)c(=O)n3c2c1 | -8.08 | 3.28 | 0.752 | -1.25 | 2.06 |
| COCc1cc(=O)n(CC(=O)NCc2ccc(OC)cc2)c(N2CCOCC2)n1 | -3.5 | -2.56 | -3.36 | -5.6 | 1.68 |
| Cc1cc(C)cc(N2C(=O)c3cc(-c4ccco4)nn3CC2(C)C(=O)NC2CCCCC2)c1 (stereo not given) | -10.3 | -3.9 | 0.219 | -3.81 | -1.24 |
| O=C(O)[C@H]1Cc2ccccc2CN1 | 2.44 | 6.42 | 8.07 | -6.12 | 4.61 |
| Cn1c(=O)c2ccc(C(=O)NC3CCCCC3)cc2n2c(=O)n(CC(=O)NCc3ccc(F)cc3)nc12 | 7.21 | 0.89 | 9.37 | 5.5 | 8.36 |
| C=C(C)C(=O)O[C@H]1[C@H]2C(=C)C(=O)O[C@@H]2C[C@@H](C)[C@@H]2O[C@@H]2C(=O)[C@](C)(O)[C@@H]1OC(C)=O | -0.312 | 4.04 | 3.94 | -8.52 | 0.844 |
| CC1CCN(S(=O)(=O)c2ccc3c(ccn3CC(=O)NCCC3=CCCCC3)c2)CC1 | 5.61 | 4.02 | 6.85 | 2.81 | 0.02 |
| Cn1nccc1C(=O)N1CCC(c2nc(CCOCC3CCCC3)no2)C1 (stereo not given) | 0.337 | -3.87 | 0.934 | 2.66 | -0.379 |
| CC(C)CNc1ccc2c(n1)C(C)(C(=O)NCc1cccnc1)CN(Cc1ccccc1)C2 (stereo not given) | -2.51 | 0.944 | -10.9 | -4.7 | 0.326 |
| CN1CCN(C2=Nc3ccccc3Nc3ccc(O)cc32)CC1 | 0.641 | 1.99 | 7.29 | -14.3 | 2.04 |
| O=C(N1CCCCCC1CN1CCOCC1)C1(c2ccccc2)CC1 (stereo not given) | -8.03 | -7.68 | -4.21 | -8.84 | 0.719 |
| O=C(OC[C@H]1O[C@@H](Oc2ccccc2CO)[C@H](O)[C@@H](O)[C@@H]1O)c1ccccc1 | -0.62 | -0.636 | 8.87 | -13.3 | -7.36 |
| Cc1ccc(NC(=O)Cn2nc3n(CCC(C)C)c(=O)c4ccc(C(=O)NC(C)C)cc4n3c2=O)cc1 | 9.93 | 1.32 | 10.2 | 10.1 | 6.12 |
| CCC(C)NC(=O)c1ccc2c(=O)n(C)c3nn(CC(=O)NC4CCCC4)c(=O)n3c2c1 (stereo not given) | 6.49 | 6.34 | 9.16 | 2.06 | 3.61 |
| Fc1ccc(-c2nc(-c3c(F)cccc3F)[nH]c2-c2ccncc2)cc1 | -35 | -12.2 | -26 | -34.7 | -16.9 |
| CCCn1c(=O)c2[nH]c(-c3cnn(Cc4cccc(C(F)(F)F)c4)c3)nc2n(CC)c1=O | -1.46 | -1.28 | 5.64 | -17.1 | -0.122 |
| CCC(CC)C(c1ccc(Nc2nc3ccccc3s2)cc1)n1cncn1 (stereo not given) | -10.2 | -41.7 | 1.31 | -59.3 | -4.21 |
| COc1ccc(OC)c2c1cc1n2CC(C)(C(=O)NC2CCCC2)N(Cc2ccc(C)cc2)C1=O (stereo not given) | 1.92 | 0.184 | 5.87 | 0.514 | -1.57 |
| CCn1nnc2c(N3CCOCC3)nc(-c3ccc(NC(=O)Nc4ccc(C(=O)N5CCN(C)CC5)cc4)cc3)nc21 | -1.67 | 9.54 | 5.04 | -66.5 | -2.4 |
| CCCn1c(=O)c2ccc(C(=O)NC(C)C)cc2n2c(=O)n(Cc3cccc(F)c3)nc12 | -0.708 | 3.73 | 5.9 | -15.4 | -0.023 |
| Cc1ccc(NC(=O)N2CCn3cccc3C2Cc2ccccc2)c(Cl)c1 (stereo not given) | 0.63 | 0 | 6.58 | -4.39 | 0.172 |
| CN(CCc1ccccn1)[C@H]1[C@@H]2OC[C@@H](O2)[C@@H](NCc2ccc(-c3ccccc3)cc2)[C@@H]1O | -3.49 | -3.16 | -0.847 | -2.24 | -3.73 |
| Cc1cc(S(=O)(=O)N2CCCC2c2noc(COc3ccc(F)cc3)n2)ccc1F (stereo not given) | -6.17 | -2.42 | -0.268 | -5.56 | 10.3 |
| CCOCC(=O)N1CCC(N2C(=O)C3(CCCCC3)C2c2ccccc2)CC1 (stereo not given) | -0.608 | 2.72 | -0.674 | -3.76 | 4.78 |
| C=C1CC2[C@]3(C)C(=C(O)C(=O)[C@@]2(C)[C@]2(C(=O)OC)C(=O)C(C)OC(=O)[C@@]12C)C(C)(C)C(=O)CC3O (stereo not given in full) | 0 | 5.48 | 9.54 | -7.89 | 5.25 |
| O=C1CCN(C(=O)C2CCN(C(=O)c3ccc4ccccc4n3)CC2)CCCCCCN1 | -3.49 | -4.37 | -1.56 | -8.07 | 10.7 |
